Publication PMC10726135
The other results are listed elsewhere or left out. At the low end of the ranking the order means little. Measured with an extract: partners may take part in the binding.

These sequences were tested against T1, HNF4alpha2 (COS-7 nuclear extract) (UniProt P41235) (assay: protein-binding microarray). Settings: COS-7 nuclear extract on double-stranded Agilent 4x180k PBM; binding buffer, salt, pH and temperature not given; high values mean tight binding; double strand, one strand shown; sequences stand for … in …GCCTAGGGAGATTAGAGTATCGGTCGA.
T1 sequence: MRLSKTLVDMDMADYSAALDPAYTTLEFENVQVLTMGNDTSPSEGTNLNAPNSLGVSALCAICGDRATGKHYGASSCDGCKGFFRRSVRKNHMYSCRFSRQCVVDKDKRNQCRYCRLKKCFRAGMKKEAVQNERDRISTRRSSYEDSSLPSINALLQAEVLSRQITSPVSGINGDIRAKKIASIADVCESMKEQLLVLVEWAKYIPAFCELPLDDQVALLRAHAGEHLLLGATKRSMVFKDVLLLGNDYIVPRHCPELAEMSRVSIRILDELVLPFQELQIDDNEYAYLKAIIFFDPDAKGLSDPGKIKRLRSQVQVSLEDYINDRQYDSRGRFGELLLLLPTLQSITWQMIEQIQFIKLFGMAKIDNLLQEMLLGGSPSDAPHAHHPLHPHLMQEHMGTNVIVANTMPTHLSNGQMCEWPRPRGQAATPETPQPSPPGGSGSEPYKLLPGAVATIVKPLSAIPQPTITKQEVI
CTCATTTATGGAGGAATTTGGACTTTTACT showed a binding signal (log2 normalized intensity) of 4.47. AAGCCCTTCTTCTGGAGCCTCAGTAAGTTT showed a binding signal (log2 normalized intensity) of 0.629. Sequence CAGGAGACGTAGAGATAAGGTCTTCTACAG has a binding signal (log2 normalized intensity) of -1.16. In the case of TGGTCACTTGTAAGATACTGAAATGCCAAA, the binding signal (log2 normalized intensity) is reported as -0.952. AGCAACTATAAAACAGGAAAAAGGGACAAA gave a binding signal (log2 normalized intensity) of -1.09. Work on CTGCCAAAGTTCAGCCTTGGGGCCATTCCA yielded a binding signal (log2 normalized intensity) of 0.325. Sequence TAGCTGTTGGAATTTGGTCACAGAAAGTGA has a binding signal (log2 normalized intensity) of 1.95. In the case of CCAGCAGGGGCTGCTGGGAGTTGTAGTTTT, the binding signal (log2 normalized intensity) is reported as -1.05. With CCACAGGAGGCCCCATCGCACGGCAGAACT the binding signal (log2 normalized intensity) was -1.07. For GCCATGTTCTCTAGAAACAGAGCCCAAGGC, the binding signal (log2 normalized intensity) was -1.1. With CTCCTGGCTTCTGGACTATGCCTTGAACTT the binding signal (log2 normalized intensity) was 2.66. AACCTGGGAAAACTTACGCACATTACTTTG showed a binding signal (log2 normalized intensity) of -1.2. Work on GTCCAGAGGCTCCAAAGGACACTCCGCTTG yielded a binding signal (log2 normalized intensity) of -1.2. Work on AACTTACCCACCTGCTGCACAACGACCCTT yielded a binding signal (log2 normalized intensity) of 2.93. For AAAATATCACAATCCTTAAGCAGCAGATAA, the binding signal (log2 normalized intensity) was -1.28. With ACCTTCGAGCTTCACCTTTGTCCTCTCTCC the binding signal (log2 normalized intensity) was 3.97. With GAGATCCTGGGTTCGAATCCCAGCGGTGCC the binding signal (log2 normalized intensity) was -1.09. Work on GCACCCGTGGTTGATCAAAGGTTGGACTGA yielded a binding signal (log2 normalized intensity) of 3.55. TGAAAAGTGAACTGTCTGCTATGTGTATAT showed a binding signal (log2 normalized intensity) of 1.51. GAGAGCAGGTGATAAGGAACTGTTATCAAG showed a binding signal (log2 normalized intensity) of -0.809. For CCCAGATGCCCAGCAGAGGGAGCCGCTGTG, the binding signal (log2 normalized intensity) was -0.984. ATATTCTTTACATTTATTAGAACCTTATGT was tested, and the binding signal (log2 normalized intensity) was 2.31. TGGGAGCAAAGGTCAAGAGTTTTAAAGTAT showed a binding signal (log2 normalized intensity) of 5.05. With CCCCAATTGCCAAGGGGGTGGTGAAATGGG the binding signal (log2 normalized intensity) was -1.17. Sequence GACCCCTGTGGTACAGGCAGTGACTGGACC has a binding signal (log2 normalized intensity) of 2.51. With TTGGATTTTTCCATATCTGTGTGCCTGTGG the binding signal (log2 normalized intensity) was 1.6. CCTGTTACCCACCTGATATTGCTGGCTCTC was tested, and the binding signal (log2 normalized intensity) was -0.819. Work on AGTGGTCATTACCTCCCTGGGCATGTCTGC yielded a binding signal (log2 normalized intensity) of 1.16. CCTCCTGCCCTATGTCCTCCAGCTCTTGGG was tested, and the binding signal (log2 normalized intensity) was 1.53. For CCAGTCCGAAGGTCCACCCGTCCGCTTGAT, the binding signal (log2 normalized intensity) was 1.57. With GGGAGGCAAATCTCTTGGTCATGGAGGGAA the binding signal (log2 normalized intensity) was -0.35. Work on TTGAACTCACTGACTTCCATCAATGAAGCA yielded a binding signal (log2 normalized intensity) of -1.25. TAATGCTGAACTTTAGCTCACTGTTGAACA showed a binding signal (log2 normalized intensity) of 0.565. GAGCAGAGAAAATTCTAGATAACTCCAAGA showed a binding signal (log2 normalized intensity) of -1.17. GAAAAGCAAGATTGGGAGCTGGGAGGAGCC gave a binding signal (log2 normalized intensity) of -1.13. GCATTGCTTCTGAAGGCTTAAGGGGAGGAT showed a binding signal (log2 normalized intensity) of -0.888. Sequence GGGGACGGAGAGCAGGGCGTGGACTTCGCT has a binding signal (log2 normalized intensity) of 0.294. With CTTGAGTCCAGGAGTGCAAAGCTGCTATGA the binding signal (log2 normalized intensity) was -1.08. With AGTCCTCTTGTGGTAATCTCTTTTGTGTTA the binding signal (log2 normalized intensity) was 2.4. CAGATGAAAGTAGTTGGGGATTGTGTAACA was tested, and the binding signal (log2 normalized intensity) was 0.893. Sequence AGTCTGCTCAAGTCTTTTAGAATGTGGATG has a binding signal (log2 normalized intensity) of 1.99. CTGTATTTAACTTTTGGGATCAGCAATGCT gave a binding signal (log2 normalized intensity) of 0.117. For CTTTATCAACTAAGACAGACCCAAAGGTTA, the binding signal (log2 normalized intensity) was 1.31. For CAAACAATGAGGACGTGTGTGTTCTGGACT, the binding signal (log2 normalized intensity) was 2.46. Sequence CCACTGGAGACTTCAAACGGGAAGCGAGGC has a binding signal (log2 normalized intensity) of -1.09. Sequence GCTGGGCCACACTGGTTCCTGCACCCGGGC has a binding signal (log2 normalized intensity) of -0.876. TATCCTGTGTTCCACAGTCAAGGCCAAAGG showed a binding signal (log2 normalized intensity) of 2.54. For CAGGCCTCAGAGATAATAGGTTGTAAAGTG, the binding signal (log2 normalized intensity) was 1.3. GCCTCTCTGTGCTGGAACTTGCTTCCTTAT showed a binding signal (log2 normalized intensity) of 0.913. For CTTTGCCAACCTGGCCTGTTTGATCTGGTT, the binding signal (log2 normalized intensity) was 0.836. TCATTCTTTAAGTGTGGGGTGACTGACTTA gave a binding signal (log2 normalized intensity) of 1.66. In the case of TGGGCAGCTTGTGTGCGTTTCCCAGATATC, the binding signal (log2 normalized intensity) is reported as 1.1. AGCAGAGCTGCTGGCAGGAATTTTAAAAGT gave a binding signal (log2 normalized intensity) of -1.07. Sequence GAACCAGGAATCCTAGGGAAGAAACATTCT has a binding signal (log2 normalized intensity) of -0.8. GGGGGCCTCTTTTAAGAAGCCAGTGTCTAT showed a binding signal (log2 normalized intensity) of 0.263. AGGAGATAATAATACTTATCTTGCAGGGTC gave a binding signal (log2 normalized intensity) of 1.57. ATGTGCCCTTTGGACAGAAATATCAGCAAG gave a binding signal (log2 normalized intensity) of 2.71. CCCTGTCTGATAAGGGTGTTTGTCCTTTGT showed a binding signal (log2 normalized intensity) of 3.02. In the case of CGCCCAGGCTGGAATGCAGTGGCGCAATCT, the binding signal (log2 normalized intensity) is reported as -1.22. In the case of CTCCTGGGACAAGGACTTTGGCTAGTGGCT, the binding signal (log2 normalized intensity) is reported as -0.344. AAGCCCCTTGGGACAGCTGGCCTCATGCCT gave a binding signal (log2 normalized intensity) of -1.02. For GACAGGATGTTCTACACTGCTTACCCTGCA, the binding signal (log2 normalized intensity) was -1.2. GTTTTTTACTGCTCCTGCTGGCTAGCCACA showed a binding signal (log2 normalized intensity) of -1.17. With GTGCTGGTACATAGCAGGGGTTAGGTAAAC the binding signal (log2 normalized intensity) was 0.229. Sequence CACATTGTTAGCAGAAACCATCTGGCTTGG has a binding signal (log2 normalized intensity) of -0.826. For TTCTGGTCAAAGGTCAATGAAGCTCTTGCT, the binding signal (log2 normalized intensity) was 5.65. CCACCAAATCTTACCTAAGGAAGTTAACCC showed a binding signal (log2 normalized intensity) of 1.84. Work on CCATCCCGTGGACTCTGCCTGCCCTCTCCA yielded a binding signal (log2 normalized intensity) of 2.28. Sequence CATATGCATTCCTGCCTCAGGCCGACCCCT has a binding signal (log2 normalized intensity) of 3.93. CCAGAGCCTCCAAAGTCCGCTTGCCTGAGG gave a binding signal (log2 normalized intensity) of -1.01. In the case of ATAACTGGTTCAACCTGTTTCCACTCCAGC, the binding signal (log2 normalized intensity) is reported as -1.03. With TGAAGAGAGTTAGGGCCTTGCTATGGAGTG the binding signal (log2 normalized intensity) was -0.447. For TGCATGGATTTCTCAGTTGAGGAATGGGTA, the binding signal (log2 normalized intensity) was 1.24. GTCTGATCTTCCTGAGGAGAGCAAAGATCA gave a binding signal (log2 normalized intensity) of 2.54. For CCCACAGAGGGGGTTTGTTTTTTGCCCTTT, the binding signal (log2 normalized intensity) was 4.6. Work on TGGGGACCTTTGGGCTCTGACCCGAAGGGT yielded a binding signal (log2 normalized intensity) of 1.74. In the case of CAGAGGAAGCAATCAAGCAATCATATATGC, the binding signal (log2 normalized intensity) is reported as -0.656. GGCGCTGAACTTTGCCTTGTACACAAAGAC showed a binding signal (log2 normalized intensity) of 1.98. Sequence AGTTCTGTCCTTTGTCCCCCACCTGTGAAG has a binding signal (log2 normalized intensity) of 4.64. CTTAATCCTTGTCTGTTTGGCCTTAGGTCC showed a binding signal (log2 normalized intensity) of 2.53. Work on GAACAGAGGGGTCTGAGCACATCACACAGG yielded a binding signal (log2 normalized intensity) of -1.05. With CTGCTGGGTCAGTTTATCTAAGATTCCCCC the binding signal (log2 normalized intensity) was 3.4. GTTGGACTTTGGACCTTTGTGTGTGTGTGT showed a binding signal (log2 normalized intensity) of 7.93. TCCCTGAAGGCCAGGCAGCACAATTTGTGT was tested, and the binding signal (log2 normalized intensity) was -0.871. GTGAGGTCAGTTGATAAACAGATAACTGGG showed a binding signal (log2 normalized intensity) of 0.0869. In the case of GGCAGAATCTAGGATAACTCTAGTGATCTT, the binding signal (log2 normalized intensity) is reported as -0.388. Work on ACGACCTTTGGACTTGAATTATCCTTATGG yielded a binding signal (log2 normalized intensity) of 6.27. In the case of GACATTCCAGAAATACTTGTTATATTGGAT, the binding signal (log2 normalized intensity) is reported as 0.764. For GAAACAGGGGATGTTGATTCCCCTGTTGTC, the binding signal (log2 normalized intensity) was 0.0619. Sequence CCCTTTGGGAAGGGGCAAAAGAGAGCGAAG has a binding signal (log2 normalized intensity) of -1.08. For ACGCCCCACCCCCTCCACCCCTGCCTTTCA, the binding signal (log2 normalized intensity) was 6.39. In the case of ACAGTTCCAGGAATGGAAACCCCTGTAAGT, the binding signal (log2 normalized intensity) is reported as 0.871. CCAAAGTCTAGATGCTGGGCAGCTTGTGTG was tested, and the binding signal (log2 normalized intensity) was 1.15.
